This note sets out measurements from the RNAGym collection of RNA variant scans (doi:10.7554/elife.90254).

Sequences and labels used below:
B1: LINE1-mini (parent)
chain: GGCAGAGCUCAACACAGCGUGGCAAAGUGGCUGUGGCUAGACUGCC

The source gives no read counts; variants with many changes may rest on few reads.

The variants in this data set derive from B1. In words: self-cleavage, relative activity (ratio to wild type); higher = more cleavage; in vitro, sequencing; the parent is a self-cleaving ribozyme.
Turning to C8U A16G A25C A26U, the self-cleavage is 0.01.
For C8U A14C G36U G40A A41G, the self-cleavage was determined as 0.23.
Consider C8G G27U C31A U32G G35U G36U, for which the self-cleavage came to 0.01.
For C8G G19A U34C the value was 0.1; for C8U A12U C23U G33U U38A, 0.04.
Consider C8G U9A C15U C18A A26C C45U, for which the self-cleavage worked out at 0.11.
As for C8G C10U G17A G19U U20A C31G C37U C45U C46U, the self-cleavage amounted to 0.
With C8G G17U C23A C46G, the self-cleavage was 0.03.
C8G G27U A39G: the self-cleavage stood at 0.02.
As for C8U A25C A39U, the self-cleavage was 0.06.
For the variant C8G C15A C23A G35C, the self-cleavage was determined as 0.06.
The same measure for C8G C10U G22U G40U U43G C46U: 0.05; for C8U A16U C23G A24G A26U G27A: 0.02.
For the variant C8G U9A G22A, the self-cleavage worked out at 0.03.
For the variant C8U A11G A14G U28A A39G, the self-cleavage came to 0.01.
In the case of C8U A11U G21C G35C G40U, the self-cleavage was 0.
In the case of C8G U20A A24G, the self-cleavage stood at 0.04.
As to C8G C15U G17U U32G G40A G44C, the self-cleavage came out at 0.01.
On to C8U C10G G17U A25G, for which the self-cleavage turned out to be 0.03.
In the case of C8U C10A A26U, the self-cleavage was found to be 0.01.
For C8G C37U G40U the value was 0.01; for C8G G22C C45A, 0.01.
With C8U A12C U20A C37U A39U C42A, the self-cleavage is 0.
With C8U A16C G17A C18U, the self-cleavage is 0.01.
With C8G U32A G40U, the self-cleavage worked out at 0.04.
For C8U C10U C15A C46A the value was 0.03; for C8U A26C U32A, 0.31; for C8U A14U U43G, 0.06.
Consider C8U A16C G17C G19C G33U, for which the self-cleavage came out at 0.03.
As to C8U C10G U28C G36U U43C, the self-cleavage came to 0.01.
Regarding C8G G22A A26G C31A C45U, the self-cleavage was determined as 0.02.
Consider C8U A16U G22C G44A, for which the self-cleavage is 0.09.
Take C8U C10G A14C: the self-cleavage came to 0.
For C8U A12C G22C C23U, the self-cleavage worked out at 0.03.
For the variant C8G G29A C31A, the self-cleavage came to 0.12.
On to C8G U28A U43C, for which the self-cleavage amounted to 0.02.
As to C8U A11C C15U G19C, the self-cleavage was 0.01.
C8U C10A A26C G30C: the self-cleavage came out at 0.01.
The same measure for C8G C23U G30A G33A A41C: 0.07; for C8G G21A A26G U43A: 0.02.
Turning to C8U C10G C13U, the self-cleavage is 0.01.
Take C8U A11G G29A C37U C46A: the self-cleavage was 0.02.
For C8U A16U G40C, the self-cleavage was 0.02.
For C8G C23A A26U the value was 0.11; for C8G C15A G22U C37U, 0.06.
The same measure for C8G U9C U43A: 0.03; for C8U A24C A26G: 0.39.
As for C8G G17A G36U U38G, the self-cleavage amounted to 0.03.
For the variant C8G G27U G36A A39G, the self-cleavage was found to be 0.01.
Turning to C8U A11C G27A U32G G44C, the self-cleavage is 0.02.
For the variant C8G U20C C31U C37A, the self-cleavage was 0.07.
In the case of C8G C23U U32A G44U, the self-cleavage is 0.07.
The same measure for C8U A12U C23U G44U: 0.12; for C8G C23A U28G A41G: 0.42; for C8U A14G G36A C46U: 0.02.
The same measure for C8G C13G A41G C42A: 0.01; for C8G U32C G33A G40A: 0.09.
The same measure for C8G U9A G21U U28A U38A A39C: 0.17; for C8U A26U C37U: 0.56.
For C8G U32A G33U U34A A41U, the self-cleavage came out at 0.09.
In the case of C8G U9C G35U, the self-cleavage stood at 0.02.
C8U A14C U43C G44U: the self-cleavage was determined as 0.03.
Consider C8G G17C C18G U38C, for which the self-cleavage was 0.03.
In the case of C8U A16U G17C C18G C31G, the self-cleavage came to 0.04.
For C8G G17U U28A C42G, the self-cleavage amounted to 0.
As to C8U A12C C18U, the self-cleavage was determined as 0.01.
Consider C8G U9G C10G, for which the self-cleavage worked out at 0.03.
Turning to C8G G19A U28G G40A, the self-cleavage is 0.12.
The same measure for C8G C23A A26G C37A: 0.13; for C8U A14C G19C C45U C46U: 0.05.
Turning to C8G C42G G44A, the self-cleavage was 0.01.
As for C8G C23G G36A U38G, the self-cleavage amounted to 0.16.
For C8G C10U A25U A39C U43C C46U the value was 0.02.
C8G U9G C13U: the self-cleavage turned out to be 0.04.
The same measure for C8U C10G C13G A16U C23G G27U G30U: 0.01; for C8G U9G G21U U38C: 0.02; for C8U C10U A26G C42A G44U: 0.04.
For the variant C8U A11U A12U C15A C23A A24G, the self-cleavage was found to be 0.03.
For C8U A26C U28G G33C the value was 0.01; for C8G G36C A39U, 0.09; for C8G G40C A41G, 0.15.
For C8U A12G C13G A16G C37U C45U the value was 0.14.
As to C8U A12G C37U A41G C46U, the self-cleavage is 0.01.
For C8G G27A C42U, the self-cleavage is 0.03.
With C8G G22A C23G G33U A39U, the self-cleavage turned out to be 0.03.
As for C8U A12U C42G, the self-cleavage was 0.1.
As for C8G G30A U34A C37U G44U, the self-cleavage was 0.01.
C8U C10G G17U G22C C23U G27U: the self-cleavage is 0.02.
For C8U A25U G30C the value was 1.26.
Take C8U A11C A12U: the self-cleavage was determined as 0.01.
Consider C8G G19C G21A A26U, for which the self-cleavage stood at 0.05.
Turning to C8G C31U G35A A39U, the self-cleavage turned out to be 0.03.
As for C8G C15A G17A G19A G44A, the self-cleavage came out at 0.07.
With C8G G21A G44C, the self-cleavage came to 0.06.
In the case of C8U A16G U20G G29U U34G, the self-cleavage was 0.02.
As for C8U A14C A41G, the self-cleavage came out at 0.1.
As to C8G C13A G44U, the self-cleavage came out at 0.03.
For the variant C8G U9A G22C G33U C37A, the self-cleavage was 0.12.
Turning to C8G C15A A16G C31U C37A, the self-cleavage amounted to 0.
Take C8G C13G A14U G17C G29A U32A C42U U43G: the self-cleavage came to 0.07.
As for C8G C23U C37G, the self-cleavage stood at 0.06.
Take C8G C10U A14G G29A: the self-cleavage came out at 0.01.
In the case of C8G U9C A25C C37A C45U, the self-cleavage was determined as 0.07.
For C8G C13A C45A, the self-cleavage amounted to 0.03.
As to C8G C18G U28G, the self-cleavage came to 0.02.
The same measure for C8G U20G C23A: 0.04; for C8G U9A G40U: 0.06; for C8G G17A G22C G33C: 0.02.
For the variant C8U A11G G17U G35U, the self-cleavage was 0.03.
C8G C37A C42A C46G: the self-cleavage was determined as 0.07.
For C8U A25C G27U G29C A39G the value was 0.01; for C8G G33U C37U, 0.03.
Consider C8G C15U U38A, for which the self-cleavage was 0.24.
For C8G G21A A39G the value was 0.03; for C8G C15U U20G G44A C45U, 0.09; for C8G C13G G30U, 0.03.
Regarding C8G U20A G36A C37G G44A, the self-cleavage came to 0.
Turning to C8G C15A G40A, the self-cleavage was 0.09.
As to C8G C15G G40C A41G, the self-cleavage was determined as 0.01.
Take C8G G27U G33C: the self-cleavage worked out at 0.02.
Consider C8U A26U G35U, for which the self-cleavage was found to be 0.05.
For C8G G19C A26G U32A G33C, the self-cleavage is 0.01.
For the variant C8G G30A A39U, the self-cleavage was 0.03.
For C8U A11C A16U U38G the value was 0.01; for C8G C13A A25U G35A, 0.12.
For the variant C8G C15U G19A G33C, the self-cleavage was found to be 0.01.
For C8G G17U C37U the value was 0.16; for C8U A24C U28G C31A, 0.11.
With C8U A24G G29U C37U U38A, the self-cleavage is 0.27.
As to C8U C10A G29C C31A U43A C45U, the self-cleavage turned out to be 0.02.
The same measure for C8G G22A C46A: 0.02.
Regarding C8U A14G G27C U28C U32G C45U, the self-cleavage amounted to 0.02.
As for C8G G22U A25G C37A, the self-cleavage came to 0.02.
On to C8G U9A C13G G29C G33A G44A C46A, for which the self-cleavage amounted to 0.13.
The same measure for C8G G40C C45A: 0.11; for C8G G27A G29U U32G G33A G36U C42A: 0.16.
Regarding C8U A12U C15A G27U A39C C42U, the self-cleavage was determined as 0.19.
With C8G G30A U32C G33U A39C U43C, the self-cleavage worked out at 0.01.
As for C8G G36U C37G, the self-cleavage stood at 0.06.
The same measure for C8U A39G A41C U43G: 0.58; for C8G C10U U20A A26C: 0.02; for C8G C13A C31U C46G: 0.04.
For C8G U9G G21U G33A U34G A39G G40A C42U, the self-cleavage came to 0.
Take C8G C13G A26G G33U C45A: the self-cleavage was 0.01.
With C8G C13U A14G U20C, the self-cleavage came out at 0.04.
Consider C8G G30A G36U, for which the self-cleavage came out at 0.1.
C8G C18U G36A C46U: the self-cleavage was found to be 0.01.
Take C8G G17U C31A C42G: the self-cleavage is 0.1.
For the variant C8G U32A C37G, the self-cleavage came to 0.
Consider C8U A26C G29A C42U, for which the self-cleavage worked out at 0.05.
As for C8U A16U A25C, the self-cleavage was found to be 0.29.
As for C8U A12G G22A C45U, the self-cleavage turned out to be 0.02.
As for C8G G21U G22A G35U, the self-cleavage turned out to be 0.34.
C8G U20G U32G C46A: the self-cleavage was determined as 0.03.
C8G C18A U28G U34A: the self-cleavage worked out at 0.03.
C8G G40U G44U: the self-cleavage was determined as 0.08.
The same measure for C8G C13A G30C U34A: 0.07; for C8G U28A G36C: 0.05.
With C8G C15G G30U, the self-cleavage worked out at 0.01.
In the case of C8U A12U A14G C23U G30A, the self-cleavage stood at 0.01.
Turning to C8G G17C A39C C42U, the self-cleavage amounted to 0.01.
For C8G C13G C37G A41C C45A the value was 0.06.
On to C8G G30C G44U, for which the self-cleavage amounted to 0.05.
For the variant C8U A11C A25U, the self-cleavage came to 0.01.
As to C8G C23G G33U G36A, the self-cleavage was 0.
In the case of C8U C10A A11C A12C U20G, the self-cleavage was determined as 0.02.
With C8U C10G A24U, the self-cleavage is 0.04.
